Measurements published in the RNAGym collection of RNA variant scans (doi:10.1101/gad.245936.114).
Variants at the floor of the assay are shown more often than the library holds them.

B1: tRNA (parent)
chain: CUCUCGGUAGCCAAGUUGGUUUAAGGCGCAAGACUUUAAUUUAUCACUACGAAAUCUUGAGAUCGGGCGUUCGACUCGCCCCCGGGAGAUUUUUUCCUCGAGCAA

Variants of: B1
Assay: nonsense suppression (GFP-seq) (ratio to wild type); higher = more function; SUP4oc tRNA, yeast GFP reporter sort-seq
Summary of the method: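 Nonsense suppression (GFPSEQ) is the median GFP/RFP ratio of each sorting bin, weighted by the variant's estimated share of cells in that bin and expressed relative to the unmutated parent tRNA. Yeast strains carried genome-integrated variants of an ochre-suppressor tRNA from a library with ~3% random mutations, plus a galactose-driven GFP ochre reporter and RFP, and were grown in raffinose/galactose medium containing 80 mg/L adenine. Cells were sorted into GFP/RFP bins, each bin was Illumina-sequenced (phred ≥30), and variants were kept only with ≥100 reads and ≥30 cells.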

Nonsense suppression, ≤ 0.026:
CUCUCGGUAGCCAAUUUGGUUUAAGCCGCAAGACUUUAAUUUAUCACUACGAAAUCUUGAGAUCGGGCGUUCGACUCGCGCCCGGGAGAUUUUUUCCUCGAGCAA
CUCUCGGUAGCCAAUUCCGUUUAAGGUGCAAGACUUUAAUUUAUCACUACGAAAUCUUGAGAUCGGGCGUUCGACUCGCCCCCGGGAGAUUUUUUCCUCGAGCAA
CUCUCGGUAGCCAAUUUGGUUUAAGGCGCAAGACUUUAAUUUAUCACUACGAAAUAUUGUGAUCGGGCGUUCGACUCGCCCCCGGGAGAUUUUUUCCUCGAGCAA
CUCUCGGUAGCCAAUUUGGUUUAAGGCGCAAGACUUUAAUUUAUCACUACGAAAUCUUGAGAUCGGGCGUUCGACUCGCCCCGGGGAGAUUUUUUCCUCGAGCAA
CUCUCGGUAGCCAAUUUGGUUUAAGGCGCAAUACUUUAAUUUAUCACUACGAAAUCCUGAGAUCGGGCGUUCGAAUCGCCCCCGGGAGAUUUUUUCCUCGAGCAA
CUCUCGGUAGCCAAUUUGGUAUAAGGCGCAAGACUUUAAUUUAUCACUACGAAAUCUGGAGAUCGGGCGUUCUACUCGCCCCCGGGAGAUUUUUUCCUCGAGCAA
CUCUCGGUAGCCAAUUUGGUUUAAGGCCCAAGACUUUAAUUUAUCACUACGAAAUCCUGAGAUCGGGCGUGCGACUCGCCCCCGGGAGAUUUUUUCCUCGAGCAA
CUCUCGGUAGCCAAUUAGGUUUAAGGCGCAAGACUUUAAUUUAUCACUACGAAACCUUGAGAUCGGGCGUUCGACUCGCCCCCGGGAGAUUUUUUCCUCGAGCAA
CUCUCGGUAGCCAAUUUGGUUUAAGGCGCAAGACUUUAAUUUAUCACUACGAAAUGUUGAGAUCGGGCCUUCGACUCGCCCCCGGGAGAUUUUUUCCUCGAGCAA
CUCUCGGUAGCCAAUUUGGUUUAAGGCGCAAGACUUUAAUUUAUCACUACGAAAUCUUGAGAUCGGGCGUUGGACUCGCCCCCGGGAGAUUUUUUCCUCGAGCAA
CUCUCGGUAGCCAAUUUGGUUUAAGGCGCAAGACUUUAAUUUAUCACUACGAAAUCUUGAGAUCGGGCGUUUGACUCGCCCCCGGGAGAUUUUUUCCUCGAGCAA
CUCUCGGUAGCCAAUUUGGUUUAAGGUGCAAGACUUUAAUUUAUCACUACGAAAUCUUGAGAUCGGGCGUUCGACUCGCCCCCGGGAGAUUUUUUCCUCGAGCAA
CUCUCGGUAGCCAAUUUGGUUUAAGGCGCAAGACUUUAAUUUAUCACUACGAAAUCUUGAGAUCGCGCGUUCGACUCGCCCCCGUGAGAUUUUUUCCUCGAGCAA
CUCUCGGUAGCCAAUUUGGCUUAAGGCGCAAUACUUUAAUUUAUCACUACGAAAUCUUGAGAUCGGGCGUUCGACUCGCCCUCGGGAGAUUUUUUCCUCGAGCAA
CUCUCGGUAGCCAAUUUGGAUUAAGGCGGAAGACUUUAAUUUAUCACUACGAAAUCUUGAGAUCGGGCGUUCGACUCGCCCCCGGGAGAUUUUUUCCUCGAGCAA
CUCUCGGUAGCCAAUUUGGUAUAAGGCGCAAGACUUUAAUUUAUCACUACGAAAGCUUGAGAUCGGGCGUUCGACUCGCCCCCGGGAGAUUUUUUCCUCGAGCAA
CUCUCGGUAGCCAAUUUGGUCUAAGGCGAAAGACUUUAAUUUAUCACUACGAAAUCUUGAGCUCGGGCGUUCGACUCGCCCCCGGGAGAUUUUUUCCUCGAGCAA
CUCUCGGUAGCCAAUUUGGUUUAAGGCGCAAGACUUUAAUUUAUCACUACGAAAUCUAGAGAUCGGGCGUUCGACUCGCCCCCGGGAGAUUUUUUCCUCGAGCAA
CUCUCGGUAGCCAAUUUGGUUUAAAGCGAAAGAGUUUAAUUUAUCACUACGAAAUCUUGAGAUCGGGCGUUCGACUCGCCCCCGGGAGAUUUUUUCCUCGAGCAA
CUCUCGGUAGCCAAUUUGGUUAAUGGCGCAAGACUUUAAUUUAUCACUACGAAAUCUUGAGAUCGGGCGUUCGACUCGCCCCCGGGAGAUUUUUUCCUCGAGCAA
CUCUCGGUAGCCAAUUUGGUUUAAUGCGCAAGACUUUAAUUUAUCACUACGAAAUCUUGAGAUCGGGCGUUCGACUCGCCCCCGGGAGAUUUUUUCCUCGAGCAA
CUCUCGGUAGCCAAUUUGGUUUAAGGCUCAAGACUUUAAUUUAUCACUACGAAAUCUUGAGAUCGGGCGUUCGACUCGCCCCCGGGAGAUUUUUUCCUCGAGCAA
CUCUCGGUAGCCAAUUUGGUUUAACGCGCAAGACUUUAAUUUAUCACUACGAAAUCUUGAGAUCGGGCGUUCGACUCGCCCCCGGUAGAUUUUUUCCUCGAGCAA
CUCUCGGUAGCCAAUUUGGUUUAAGGCGCAAGACGUUAAUUUAUCACUACGAAAUCUUGAGAUCGGGCGUUCGACUCGCCCCUGGGAGAUUUUUUCCUCGAGCAA
CUCUCGGUAGCCAAUAUGUUUUAAGGCGCAAGACUUUAAUUUAUCACUACGAAAUCUUGGGAUCGGGCGUUCGACUCGCCCCCGGGAGAUUUUUUCCUCGAGCAA
CUCUCGGUAGCCAAUAUGGUUUAAGGCGCUAGACUUUAAUUUAUCACUACGAAAUCUUGAGAUCGGGCGUUCGACUCGCCCCCGGGAGAUUUUUUCCUCGAGCAA
CUCUCGGUAGCCAAUUUGGUUUAAGGUGCAAGACUUUAAUUUAUCACUACGAAAUCUUGAGAUCGGGCGUUCCACUCGCCCCCGGGAGAUUUUUUCCUCGAGCAA
CUCUCGGUAGCCAAUUUGCUUUAAGGCGCAAGACUUUAAUUUAUCACUACGAAAUCUUGAGAUCGGGCGUUCGACUCGCCCCCGGGAGAUUUUUUCCUCGAGCAA
CUCUCGGUAGCCAAUUUGGUUUAAGGCGCAAGACUUUAAUUUAUCACUACGAAAUCUUGAGAUCCGGCGUUCGACUCGCGCCCGGGAGAUUUUUUCCUCGAGCAA
CUCUCGGUAGCCAAUUUGGUUUAAGGCGCAAGACUUUAAUUUAUCACUACGAAAUCUUGAGAUCGGGCGUUCGAGUCGCCCCCGGGAGAUUUUUUCCUCGAGCAA
CUCUCGGUAGCCAAUUUGGUUUAAGGCGCAAGACUUUAAUUUAUCACUACGAAAUAUUGAGAUCGGGCGUUCGACUCGCCCCCGGGACAUUUUUUCCUCGAGCAA
CUCUCGGUAGCCAAUUUGGUUUAACGCGCAAGACUUUAAUUUAUCACUACGAAAUCUUGAGAUCGGGCGUUCGACUCGCCCCCGGGGGAUUUUUUCCUCGAGCAA
CUCUCGGUAGCCAAUUUGGUUUAAGGCGCAAGACUUUAAUUUAUCACUACGAAAUCCUGAGAUCGGGCGUUCGACUCGCCCCCGGGAGAUUUUUUCCUCGAGCAA
CUCUCGGUAGCCAAUUUGGUUUAAGGCGCAAGACUUUAAUUUAUCACUACGAAAUCGUGAGAUCGGGCGUUCGACUCGCCCCCGGGAGAUUUUUUCCUCGAGCAA
CUCUCGGUAGCCAAUUUGGUUUAAGGCGCAAGACGUUAAUUUAUCACUACGAAAUCUUGAGAUCGGGCGUUCGACUCGCCCCCGGGAGAUUUUUUCCUCGAGCAA
CUCUCGGUAGCCAAUUUGGUUUAAGGCGCAAGACUUUAAUUUAUCACUACGAAAUCUUGAGAUCGGGCGUUCGACUCGCCCCCGGGAAAUUUUUUCCUCGAGCAA
CUCUCGGUAGCCAAUUUGGUUUAAGGCGCAAGACUUUAAUUUAUCACUACGAAAUCGUGACAUCGGGCGUUCGACUCGCCCCCGGGAGAUUUUUUCCUCGAGCAA
CUCUCGGUAGCCAAUUUGGUUUAAGGCGGCAGACUUUAAUUUAUCACUACGAAAUCUUGAGAUCGGGCGUUCGACUCGCCCCCGGGAGAUUUUUUCCUCGAGCAA
CUCUCGGUAGCCAAUUUGGUUUAAGGCGCAAGACUUUAAUUUAUCACUACGAAAUCUUGAGAUCGGGCCUUCGACUCCCCCCCGGGAGAUUUUUUCCUCGAGCAA
CUCUCGGUAGCCAAUUUGGUUUAAGUCGCAAGACUUUAAUUUAUCACUACGAAAUCUUGAGAUCGGGCGUUCGGCUCGCCCCCGGGAGAUUUUUUCCUCGAGCAA
CUCUCGGUAGCCAAUUUGGUUUAAGGCGCAAGACUUUAAUUUAUCACUACGAAAUCUUGAGAUCGGGCGUUCCACCCGCCCCCGGGAGAUUUUUUCCUCGAGCAA
CUCUCGGUAGCCAAUUUGGUUUAAGGCGCAAGAUUUUAAUUUAUCACUACGAAAUCUUGAAAUCGGGCGUUCGACUCGCCCCCGCGAGAUUUUUUCCUCGAGCAA
CUCUCGGUAGCCAAUUUGGUGUAAGGCGCAAGACUUUAAUUUAUCACUACGAAAUCUUGCGAUCGGGCGUUCGACUCGCCCCCGGGAGAUUUUUUCCUCGAGCAA
CUCUCGGUAGCCAAUUUGGUUUAAGGCGCAAGACUUUAAUUUAUCACUACGAAAUCUGGAGAUCGGGCGUUCCACUCGCCCCCGGGAGAUUUUUUCCUCGAGCAA
CUCUCGGUAGCCAAUUUGGUUUAACGCGCAAGACUUUAAUUUAUCACUACGAAAUCUUGAGAUCGGGCGUGCGACUCGCCCCCGGGAGAUUUUUUCCUCGAGCAA
CUCUCGGUAGCCAAUUUGGUUUAAGGCGCAAGACUUUAAUUUAUCACUACGAAAUCUUGAGAUCGGGCGUUCGACUCGCCGCCGGGAGAUUUUUUCCUCGAGCAA
CUCUCGGUAGCCAAUUUAGUUUAAGGCGCAAGACUUUAAUUUAUCACUACGAAACCUUUAGAGCGGGCGUUGGACUCGCCCUCGCGAGAUUUUUUCCUCGAGCAA
CUCUCGGUAGCCAAUUUGGUUUAAGGCACAAGACUUUAAUUUAUCACUACGAAAUCUUGAGAUCGGGCGUUCGACUCGCGCCCGGGAGAUUUUUUCCUCGAGCAA
CUCUCGGUAGCCAAUUUGGUUUAAGGCGUAAGACUUUAAUUUAUCACUACGAAAUCUUGAGAUCGGGCGUUCGACUCGCCCCCGGGAGAUUUUUUCCUCGAGCAA
CUCUCGGUAGCCAAUUUGGUUUAAGACGCACGAUUUUAAUUUAUCACUACGAAAUCUUGAGAUCGGGCGUUCGACUCGCCCCCGGGAGAUUUUUUCCUCGAGCAA
CUCUCGGUAGCCAAUUUGGUCUAAGGCGCAAGACUUUAAUUUAUCACUACGAAAUCUUGAGAUCGGGCCUUCGACUCGCCCCCGGGAGAUUUUUUCCUCGAGCAA
CUCUCGGUAGCCAAUUUGGUUUAAGGCGCAAGACUUUAAUUUAUCACUACGAAAUCUUGAUAACGGGCGUUCGACUCGCCCCCGGGAAAUUUUUUCCUCGAGCAA
CUCUCGGUAGCCAAUUUGGUUUAAGGCGCAAGACUUUAAUUUAUCACUACGAAAUCUAGAGAACGGGCGUUCGACUCGCCCCCGGGAGAUUUUUUCCUCGAGCAA
CUCUCGGUAGCCAAUUUGGUUUAAGGCGCAAGACUUUAAUUUAUCACUACGAAAUCUUGAGAUCGGGAGUUCGACGCGCCCCCGGGAGAUUUUUUCCUCGAGCAA
